Test results taken from PMC12820563.
The other results are listed elsewhere or left out. The list includes weakly bound sequences.

Target: T1, MBP-FoxP3dN (UniProt Q99JB6)
T1 sequence: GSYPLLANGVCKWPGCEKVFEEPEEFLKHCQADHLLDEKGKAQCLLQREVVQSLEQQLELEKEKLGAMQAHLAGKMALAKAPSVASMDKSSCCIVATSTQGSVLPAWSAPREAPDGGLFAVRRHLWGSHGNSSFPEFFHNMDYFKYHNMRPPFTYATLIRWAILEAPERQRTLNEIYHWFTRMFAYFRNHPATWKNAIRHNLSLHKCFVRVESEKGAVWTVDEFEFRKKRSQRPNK
Test: PD-seq (MBP pull-down with sequencing)
Conditions: 20 mM Tris-HCl pH 7.5, 100 mM NaCl, 1.5 mM MgCl2, 0.4 uM protein, 0.1 uM dsDNA library, 30 min, room temperature, amylose pull-down; high values mean tight binding; double strand, one strand shown

Sequence | binding signal (RPM ratio (pull-down/input))
GATGATTGTTCTCCCAGCTGATGAATTGTCACATTCGAGTAAACAAATTTTCCTAATCTTTCTGTTCAAGCGCCATCTAC | 0.685
GATGATTGTTCTCCCAGCTGATGAATTCCTAGACTCGAGTAAACAAATTTTCCTAATCTTTCTGTTCAAGCGCCATCTAC | 0.209
GATGATTGTTCTCCCAGCTGATGAATTTTATCTCTCGAGTAAACAAATTTTCCTAATCTTTCTGTTCAAGCGCCATCTAC | 0.547
GATGATTGTTCTCCCAGCTGATGAATTAATGGGTTCGAGTAAACAAATTTTCCTAATCTTTCTGTTCAAGCGCCATCTAC | 0.49
GATGATTGTTCTCCCAGCTGATGAATTTGTCAGGTCGAGTAAACAAATTTTCCTAATCTTTCTGTTCAAGCGCCATCTAC | 2.36
GATGATTGTTCTCCCAGCTGATGAATTGTTCTTATCGAGTAAACAAATTTTCCTAATCTTTCTGTTCAAGCGCCATCTAC | 0.457
GATGATTGTTCTCCCAGCTGATGAATTATTCTAGTCGAGTAAACAAATTTTCCTAATCTTTCTGTTCAAGCGCCATCTAC | 0.256
GATGATTGTTCTCCCAGCTGATGAATTAGCGACATCGAGTAAACAAATTTTCCTAATCTTTCTGTTCAAGCGCCATCTAC | 0.71
GATGATTGTTCTCCCAGCTGATGAATTGAGTCTGTCGAGTAAACAAATTTTCCTAATCTTTCTGTTCAAGCGCCATCTAC | 0.453
GATGATTGTTCTCCCAGCTGATGAATTGCGCCACTCGAGTAAACAAATTTTCCTAATCTTTCTGTTCAAGCGCCATCTAC | 7.19
GATGATTGTTCTCCCAGCTGATGAATTACTCTGATCGAGTAAACAAATTTTCCTAATCTTTCTGTTCAAGCGCCATCTAC | 0.271
GATGATTGTTCTCCCAGCTGATGAATTTAGTGCGTCGAGTAAACAAATTTTCCTAATCTTTCTGTTCAAGCGCCATCTAC | 1.28
GATGATTGTTCTCCCAGCTGATGAATTCCTTTACTCGAGTAAACAAATTTTCCTAATCTTTCTGTTCAAGCGCCATCTAC | 0.576
GATGATTGTTCTCCCAGCTGATGAATTGTCCGGTTCGAGTAAACAAATTTTCCTAATCTTTCTGTTCAAGCGCCATCTAC | 0.283
GATGATTGTTCTCCCAGCTGATGAATTCACTCCCTCGAGTAAACAAATTTTCCTAATCTTTCTGTTCAAGCGCCATCTAC | 0.315
GATGATTGTTCTCCCAGCTGATGAATTCCAAAATTCGAGTAAACAAATTTTCCTAATCTTTCTGTTCAAGCGCCATCTAC | 0.213
GATGATTGTTCTCCCAGCTGATGAATTGCAGTGTTCGAGTAAACAAATTTTCCTAATCTTTCTGTTCAAGCGCCATCTAC | 1.23
GATGATTGTTCTCCCAGCTGATGAATTCTTACGGTCGAGTAAACAAATTTTCCTAATCTTTCTGTTCAAGCGCCATCTAC | 0.26
GATGATTGTTCTCCCAGCTGATGAATTACGGAGATCGAGTAAACAAATTTTCCTAATCTTTCTGTTCAAGCGCCATCTAC | 0.285
GATGATTGTTCTCCCAGCTGATGAATTGATACTATCGAGTAAACAAATTTTCCTAATCTTTCTGTTCAAGCGCCATCTAC | 1.24
GATGATTGTTCTCCCAGCTGATGAATTGGACCTTTCGAGTAAACAAATTTTCCTAATCTTTCTGTTCAAGCGCCATCTAC | 0.275

Sequence | binding signal (RPM ratio (pull-down/input))
GATGATTGTTCTCCCAGCTGATGAATTAGAGATATCGAGTAAACAAATTTTCCTAATCTTTCTGTTCAAGCGCCATCTAC | 0.353
GATGATTGTTCTCCCAGCTGATGAATTGGGTAAATCGAGTAAACAAATTTTCCTAATCTTTCTGTTCAAGCGCCATCTAC | 0.297
GATGATTGTTCTCCCAGCTGATGAATTATAATCATCGAGTAAACAAATTTTCCTAATCTTTCTGTTCAAGCGCCATCTAC | 0.744
GATGATTGTTCTCCCAGCTGATGAATTACACTCCTCGAGTAAACAAATTTTCCTAATCTTTCTGTTCAAGCGCCATCTAC | 0.571
GATGATTGTTCTCCCAGCTGATGAATTTCTAGGGTCGAGTAAACAAATTTTCCTAATCTTTCTGTTCAAGCGCCATCTAC | 0.194
GATGATTGTTCTCCCAGCTGATGAATTCGGATAGTCGAGTAAACAAATTTTCCTAATCTTTCTGTTCAAGCGCCATCTAC | 0.48
GATGATTGTTCTCCCAGCTGATGAATTCTGTGATTCGAGTAAACAAATTTTCCTAATCTTTCTGTTCAAGCGCCATCTAC | 3.34
GATGATTGTTCTCCCAGCTGATGAATTTAATCCTTCGAGTAAACAAATTTTCCTAATCTTTCTGTTCAAGCGCCATCTAC | 0.322
GATGATTGTTCTCCCAGCTGATGAATTCTCACTATCGAGTAAACAAATTTTCCTAATCTTTCTGTTCAAGCGCCATCTAC | 0.378
GATGATTGTTCTCCCAGCTGATGAATTTTAAGCATCGAGTAAACAAATTTTCCTAATCTTTCTGTTCAAGCGCCATCTAC | 0.881
GATGATTGTTCTCCCAGCTGATGAATTGATACACTCGAGTAAACAAATTTTCCTAATCTTTCTGTTCAAGCGCCATCTAC | 1.99
GATGATTGTTCTCCCAGCTGATGAATTCACTAGGTCGAGTAAACAAATTTTCCTAATCTTTCTGTTCAAGCGCCATCTAC | 0.236
GATGATTGTTCTCCCAGCTGATGAATTGCCTCCATCGAGTAAACAAATTTTCCTAATCTTTCTGTTCAAGCGCCATCTAC | 1.28
GATGATTGTTCTCCCAGCTGATGAATTACCTGCTTCGAGTAAACAAATTTTCCTAATCTTTCTGTTCAAGCGCCATCTAC | 0.326
GATGATTGTTCTCCCAGCTGATGAATTGGGGATCTCGAGTAAACAAATTTTCCTAATCTTTCTGTTCAAGCGCCATCTAC | 0.366
GATGATTGTTCTCCCAGCTGATGAATTAGACTCTTCGAGTAAACAAATTTTCCTAATCTTTCTGTTCAAGCGCCATCTAC | 0.49
GATGATTGTTCTCCCAGCTGATGAATTTTGCATGTCGAGTAAACAAATTTTCCTAATCTTTCTGTTCAAGCGCCATCTAC | 6.69
GATGATTGTTCTCCCAGCTGATGAATTTACCTTCTCGAGTAAACAAATTTTCCTAATCTTTCTGTTCAAGCGCCATCTAC | 0.534
GATGATTGTTCTCCCAGCTGATGAATTAAACGCGTCGAGTAAACAAATTTTCCTAATCTTTCTGTTCAAGCGCCATCTAC | 0.609
GATGATTGTTCTCCCAGCTGATGAATTGACCGTGTCGAGTAAACAAATTTTCCTAATCTTTCTGTTCAAGCGCCATCTAC | 0.368
GATGATTGTTCTCCCAGCTGATGAATTAAAATTGTCGAGTAAACAAATTTTCCTAATCTTTCTGTTCAAGCGCCATCTAC | 0.481

Sequence | binding signal (RPM ratio (pull-down/input))
GATGATTGTTCTCCCAGCTGATGAATTTGGTACCTCGAGTAAACAAATTTTCCTAATCTTTCTGTTCAAGCGCCATCTAC | 0.89
GATGATTGTTCTCCCAGCTGATGAATTAGCAAACTCGAGTAAACAAATTTTCCTAATCTTTCTGTTCAAGCGCCATCTAC | 0.415
GATGATTGTTCTCCCAGCTGATGAATTGCGGAAATCGAGTAAACAAATTTTCCTAATCTTTCTGTTCAAGCGCCATCTAC | 0.688
GATGATTGTTCTCCCAGCTGATGAATTGTCATGATCGAGTAAACAAATTTTCCTAATCTTTCTGTTCAAGCGCCATCTAC | 0.567
GATGATTGTTCTCCCAGCTGATGAATTACGATTCTCGAGTAAACAAATTTTCCTAATCTTTCTGTTCAAGCGCCATCTAC | 0.89
GATGATTGTTCTCCCAGCTGATGAATTCAGTTTCTCGAGTAAACAAATTTTCCTAATCTTTCTGTTCAAGCGCCATCTAC | 1.41
GATGATTGTTCTCCCAGCTGATGAATTGTCTAAATCGAGTAAACAAATTTTCCTAATCTTTCTGTTCAAGCGCCATCTAC | 0.383
GATGATTGTTCTCCCAGCTGATGAATTGGACCGATCGAGTAAACAAATTTTCCTAATCTTTCTGTTCAAGCGCCATCTAC | 0.184
GATGATTGTTCTCCCAGCTGATGAATTGGCGGGATCGAGTAAACAAATTTTCCTAATCTTTCTGTTCAAGCGCCATCTAC | 0.323
GATGATTGTTCTCCCAGCTGATGAATTGACCACCTCGAGTAAACAAATTTTCCTAATCTTTCTGTTCAAGCGCCATCTAC | 0.312
GATGATTGTTCTCCCAGCTGATGAATTTTACGCTTCGAGTAAACAAATTTTCCTAATCTTTCTGTTCAAGCGCCATCTAC | 0.414
GATGATTGTTCTCCCAGCTGATGAATTCTTCCGATCGAGTAAACAAATTTTCCTAATCTTTCTGTTCAAGCGCCATCTAC | 0.208
GATGATTGTTCTCCCAGCTGATGAATTTAAAAGGTCGAGTAAACAAATTTTCCTAATCTTTCTGTTCAAGCGCCATCTAC | 0.203
GATGATTGTTCTCCCAGCTGATGAATTTCAGCAGTCGAGTAAACAAATTTTCCTAATCTTTCTGTTCAAGCGCCATCTAC | 0.328
GATGATTGTTCTCCCAGCTGATGAATTCGATTCGTCGAGTAAACAAATTTTCCTAATCTTTCTGTTCAAGCGCCATCTAC | 1.09
GATGATTGTTCTCCCAGCTGATGAATTCCTGCGGTCGAGTAAACAAATTTTCCTAATCTTTCTGTTCAAGCGCCATCTAC | 0.244
GATGATTGTTCTCCCAGCTGATGAATTCAGTATGTCGAGTAAACAAATTTTCCTAATCTTTCTGTTCAAGCGCCATCTAC | 2.28
GATGATTGTTCTCCCAGCTGATGAATTCACGTTTTCGAGTAAACAAATTTTCCTAATCTTTCTGTTCAAGCGCCATCTAC | 0.512
GATGATTGTTCTCCCAGCTGATGAATTAGCAAGGTCGAGTAAACAAATTTTCCTAATCTTTCTGTTCAAGCGCCATCTAC | 0.338
GATGATTGTTCTCCCAGCTGATGAATTAAGGTCATCGAGTAAACAAATTTTCCTAATCTTTCTGTTCAAGCGCCATCTAC | 0.472
GATGATTGTTCTCCCAGCTGATGAATTAAAATCCTCGAGTAAACAAATTTTCCTAATCTTTCTGTTCAAGCGCCATCTAC | 0.24
